System: Klebsiella pneumoniae resistant to antibiotic 9865 R.P.
Settings: read-out: Minimal inhibitory concentration
Procedure: The bacteriostatic activity of 20,798 R.P. was determined by one of the dilution methods usually employed for this purpose. For each microorganism the minimum concentration of antibiotic, which under specified conditions inhibits all visible development of the microorganism in an appropriate nutrient medium, was determined. The results of the various determinations are collected in Table III below, in which the minimum bacteriostatic concentrations are expressed in micrograms of substance per cc. of test medium.

COc1cccc2c1C(=O)c1c(O)c3c(c(O)c1C2=O)CC(O)(C(C)O)CC3OC1CC(N)C(O)C(C)O1 (stereo not shown) [20,798 R.P.]
MIC: > 200 µg/mL
